Experimental findings from the supplement of paper PMC10126150 are described below.

Values marked as one replicate rest on one cluster of the flow cell; about a third of the high ones do not repeat.
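Also: ATP exposure 15 min at 22 °C before imaging.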

This data set relates to ATP. Nature of the data set: switch fluorescence ratio, 500 uM ATP over buffer (Cy3 cluster intensity, sum of 5 cycles each) (fold (ratio)); higher = stronger signal-on switching upon ATP binding; sequences stand for … in TCGTCGGCAGCGTCAGATGTGTATAAGAGACAGTTTTTTTTTTTTTTTTTTTTTTTTT…TC. To be noted: aptamer strand: ATP DNA aptamer (quencher-CACCTGGGGGAGTATTGCGGAGGAAGG + anchor), 100 nM annealed; ATP concentration: 500 uM; one replicate. The method in brief:
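Cy3-labelled switching-strand clusters on a modified Illumina MiSeq flow-cell were annealed to 100 nM quencher-labelled ATP aptamer, imaged in selection buffer, then imaged after 15 min with 500 uM ATP at 22 °C. Five buffer/ATP cycles ran, with NaOH stripping and re-annealing between them. The fluorescence ratio is summed target-cycle over summed buffer-cycle Cy3 intensity per cluster, averaged per switch-domain sequence. Clusters outside 100-1000 RFU were excluded.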
As for CAGTAGGTAA, the switch fluorescence ratio was 0.962.
For the sequence CCTGTTGGAG, the switch fluorescence ratio stood at 0.997.
For GTAGTGGTAG, the switch fluorescence ratio is 1.01.
As to AAGGCTATTG, the switch fluorescence ratio came out at 0.989.
For TACGAAGGG, the switch fluorescence ratio turned out to be 0.965.
As for GTTATCATAG, the switch fluorescence ratio worked out at 1.02.
For the sequence TGGTCCGCGC, the switch fluorescence ratio is 1.57.
With GCTTCTATTT, the switch fluorescence ratio amounted to 1.04.
For AAGCGTCTAG, the switch fluorescence ratio worked out at 1.05.
Consider ACCGTTAAGG, for which the switch fluorescence ratio is 0.995.
Then ACTATCATAA, with 1.06.
For the sequence GTCGGGTGTC, the switch fluorescence ratio is 1.03.
In the case of GGAGTGTA, the switch fluorescence ratio is 0.907.
As for GGGCAGCGTA, the switch fluorescence ratio is 1.01.
TGGTCCTGCG: the switch fluorescence ratio turned out to be 0.998.
Regarding TAAGCGGCTA, the switch fluorescence ratio was 1.04.
TACCAATTTT: the switch fluorescence ratio is 1.
For the sequence TTCAGTGTGA, the switch fluorescence ratio turned out to be 1.02.
Take AGCCGTATTG: the switch fluorescence ratio was found to be 1.04.
For the sequence ATGAGACAGC, the switch fluorescence ratio came to 1.05.
As to GTTAATATCT, the switch fluorescence ratio is 1.01.
Next, TTTTGATGGA: 0.98; GGCTCAGCGT: 1.11; CAGCTTAAGC: 1.01.
Regarding GGTGGTTCGA, the switch fluorescence ratio was 0.966.
Turning to CTAACTCTGT, the switch fluorescence ratio is 1.
In the case of GTCAAAGCGA, the switch fluorescence ratio is 1.06.
Regarding TAAGCGTCAG, the switch fluorescence ratio came to 1.02.
Regarding CGCACGCTTG, the switch fluorescence ratio worked out at 1.02.
With GCGCATTGCC, the switch fluorescence ratio amounted to 1.17.
With TAACGTACGT, the switch fluorescence ratio was found to be 1.12.
Consider CAGTGCATAC, for which the switch fluorescence ratio is 1.7.
With AAGTGTTCGC, the switch fluorescence ratio was 0.995.
Next, CGGGCACAA: 1.1; CTTCGGGAAT: 1.25.
For CGGATTCTCC, the switch fluorescence ratio amounted to 1.29.
For TCGGGTGAT, the switch fluorescence ratio amounted to 1.03.
CGAAACTTAG: the switch fluorescence ratio turned out to be 0.997.
Next, CTTTGAACTA: 1; ATGGATGTAT: 0.949.
Regarding AATGTCCTCT, the switch fluorescence ratio was determined as 0.983.
Turning to GTTTAAATTT, the switch fluorescence ratio was found to be 0.989.
As for GGCGTCGGGG, the switch fluorescence ratio came to 0.989.
Regarding ATTGGAGGAG, the switch fluorescence ratio worked out at 0.971.
For the sequence TTCGTCCGAA, the switch fluorescence ratio worked out at 1.19.
Then CTCTTGAAAG, with 1.01; and CGATTGTCTC, with 0.953.
CGTAGGTACT: the switch fluorescence ratio turned out to be 0.965.
Then ATAGGCCTTT, with 0.986; and TGCGTTTTAC, with 1.15.
In the case of CCACCTTAGG, the switch fluorescence ratio stood at 1.03.
For CGTTATGTTG, the switch fluorescence ratio turned out to be 0.867.
For AAAAGCTTGT, the switch fluorescence ratio was 1.08.
Regarding GACAATACGC, the switch fluorescence ratio was determined as 2.09.
TGTCGTGTCT: the switch fluorescence ratio was 1.04.
On to GTGGGCAATT, for which the switch fluorescence ratio came out at 1.06.
On to TATACCCGCC, for which the switch fluorescence ratio was determined as 1.22.
Next, GATCTGTATT: 1.03; TAGTTCAGCA: 1.01.
Turning to CAGCTCGGTT, the switch fluorescence ratio was determined as 1.03.
As for GCGCTTTCCT, the switch fluorescence ratio stood at 1.59.
Consider ATGTAGGCCT, for which the switch fluorescence ratio came to 0.966.
In the case of TGATATCGCG, the switch fluorescence ratio amounted to 0.943.
Then ACTATGGCT, with 0.984.
With CGTAATGTG, the switch fluorescence ratio was 1.01.
TTAAGTCGGT: the switch fluorescence ratio amounted to 0.996.
Turning to GACGGCCGTG, the switch fluorescence ratio stood at 0.985.
With TGAGGAATAT, the switch fluorescence ratio is 1.
Turning to AATTCTCTTT, the switch fluorescence ratio came to 1.03.
As for AAGAGGAGGT, the switch fluorescence ratio turned out to be 0.96.
Take AGCATTAAGT: the switch fluorescence ratio was 0.966.
CCGGCCGATG: the switch fluorescence ratio was found to be 1.05.
Consider CGGTGGTCGG, for which the switch fluorescence ratio came to 1.02.
Turning to TTGCGAAA, the switch fluorescence ratio amounted to 1.01.
Consider TCGGGTAGAC, for which the switch fluorescence ratio was found to be 1.36.
As to TTTGGGCACA, the switch fluorescence ratio is 1.34.
As to ACCGGTTAGT, the switch fluorescence ratio was determined as 0.994.
Turning to TCCAAAAGGG, the switch fluorescence ratio worked out at 1.01.
Take GCTTTCGTTT: the switch fluorescence ratio amounted to 0.966.
TAGGGTCGCG: the switch fluorescence ratio was determined as 1.
TCGCGACGCA: the switch fluorescence ratio was 1.95.
Then GATGTTAAGG, with 1.03.
Then TGAGTCAGAG, with 0.997; and GCGCGACCGC, with 1.03; and CTGACTTCAA, with 1.9.
Turning to GGACGAGCAG, the switch fluorescence ratio stood at 1.04.
Take AGGACTGGAA: the switch fluorescence ratio amounted to 1.04.
For ATAGGTTGAG, the switch fluorescence ratio came to 0.98.
Then GTTCCTGGGC, with 1.02.
As for TGCCCTCATA, the switch fluorescence ratio stood at 0.962.
Next, GAAGTTTCTT: 0.997.
GTAGGTCTCT: the switch fluorescence ratio came out at 1.03.
As for AGAAACTGGT, the switch fluorescence ratio amounted to 1.06.
Then ATTTGTCATG, with 0.987; and CCACAAAGAT, with 1.04; and TCGTATTATA, with 1.03.
Next, GAGATTTCGA: 0.989; CTGCTTGAGA: 1.01; TAGGGATGGA: 0.968.
Take AATAGCGGGC: the switch fluorescence ratio was found to be 1.06.
Consider CCTCGCGGAG, for which the switch fluorescence ratio was 2.21.
Regarding AAGGAGGC, the switch fluorescence ratio was found to be 0.984.
As to CCTTCCCCGG, the switch fluorescence ratio turned out to be 1.33.
Turning to GAGATAATAG, the switch fluorescence ratio came to 1.01.
With TTGATCCAAT, the switch fluorescence ratio was 0.994.
As to CCAGGACGGC, the switch fluorescence ratio was determined as 0.974.
In the case of CAATGGAGTG, the switch fluorescence ratio turned out to be 0.968.
On to ACTATGCTCA, for which the switch fluorescence ratio was 1.04.
Next, CATCGACTTG: 1.01; CTCTATTGCC: 0.948.
On to GGGTCATTCT, for which the switch fluorescence ratio stood at 1.07.
Turning to GTGGCGCCCT, the switch fluorescence ratio turned out to be 1.18.
Turning to TTTCAAATAT, the switch fluorescence ratio worked out at 0.989.
Next, TTGCCGATGG: 0.997; TTACGAGTGA: 1.04; CTTAGCTTTT: 1.07.
With TTTTTCAGAC, the switch fluorescence ratio was determined as 1.05.
With CAATACATC, the switch fluorescence ratio is 1.07.
CCAAACGTAT: the switch fluorescence ratio was found to be 1.18.
Next, TTTCTGTAAC: 1.01.
